Assay results: paper PMC6919601, “Identification of Plasmodium dipeptidyl aminopeptidase allosteric inhibitors by high throughput screening” (PLoS ONE, 2019)
About 230 (0.21%) of roughly 110,000 compounds showed an effect of 50% or more. The list shows a part of the results. Where a SMILES comes first, the peptide text is derived from it. The star is where a group is joined. Cbz = O=C(OCc1ccccc1)*

Target: DPAP1 (Plasmodium falciparum, UniProt Q8IIJ9)
Experiment: primary screen, percent inhibition; read by cleavage of a fluorogenic dipeptide substrate; higher = more effect of the substance
Parameters: species or system P. falciparum D10 trophozoite lysates; single well
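Note: 30 min substrate incubation versus DMSO and 10 µM JCP410 controls.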

DPAP1, sequence (Q8IIJ9 whole entry, looked up): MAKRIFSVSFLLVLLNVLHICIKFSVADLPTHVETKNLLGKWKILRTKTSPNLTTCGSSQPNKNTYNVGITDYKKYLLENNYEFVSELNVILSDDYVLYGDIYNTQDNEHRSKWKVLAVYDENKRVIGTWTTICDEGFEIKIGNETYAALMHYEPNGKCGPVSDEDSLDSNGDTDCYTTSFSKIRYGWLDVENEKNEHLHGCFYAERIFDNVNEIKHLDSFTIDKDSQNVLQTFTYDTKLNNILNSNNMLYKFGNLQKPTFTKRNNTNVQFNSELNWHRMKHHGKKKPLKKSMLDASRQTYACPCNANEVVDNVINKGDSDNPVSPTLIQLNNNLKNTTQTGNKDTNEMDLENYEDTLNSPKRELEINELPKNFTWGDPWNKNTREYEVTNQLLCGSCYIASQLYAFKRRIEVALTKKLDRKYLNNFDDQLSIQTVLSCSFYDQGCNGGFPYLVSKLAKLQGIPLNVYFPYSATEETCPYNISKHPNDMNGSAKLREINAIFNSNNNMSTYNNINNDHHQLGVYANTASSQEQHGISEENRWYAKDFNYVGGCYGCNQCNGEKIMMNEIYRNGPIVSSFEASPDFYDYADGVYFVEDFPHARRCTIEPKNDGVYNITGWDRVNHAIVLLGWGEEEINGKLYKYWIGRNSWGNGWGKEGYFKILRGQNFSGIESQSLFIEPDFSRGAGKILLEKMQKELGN

`COC(=O)c1cc2occc2n1Cc1cccc(OC)c1` was tested. Which “% Inhibition @ 10 uM” value did it give?
Its value is -1.69%.

For `CNCC(C)COc1ccccc1OCc1ccccc1` (stereo not shown), which “% Inhibition @ 10 uM” value is on record?
The value was -2.29%.

How did the “% Inhibition @ 10 uM” value turn out when `O=C(O)CCC(=O)N1CCN(c2cccc(Cl)c2)CC1` was run?
Its value is 1.52%.

Which “% Inhibition @ 10 uM” value does the source give for `COc1ccc(CN2CCCCC2CO)c2ccccc12` (stereo not shown) here?
The value was 2.1%.

For `O=C(Nc1cccc(NC(=O)c2cccnc2)n1)c1cccnc1`, which “% Inhibition @ 10 uM” value is on record?
Its value is -0.28%.

`CCN1CCCC1CNC(=O)C12CC3CC(CC(C3)C1)C2` (stereo not shown) was tested. Which “% Inhibition @ 10 uM” value did it give?
Its value is -1.66%.

How did the “% Inhibition @ 10 uM” value turn out when `Cc1ccc(CNC(=O)Cn2ncc3c4ccccc4n(C)c3c2=O)cc1` was run?
The value was -11.6%.

How did the “% Inhibition @ 10 uM” value turn out when `CCOC(=O)C1CCCN(Cc2cccc(F)c2)C1` (stereo not shown) was run?
The value was 1.55%.

`CN1CCc2nc3sc4c(=O)[nH]c(=O)[nH]c4c3c(-c3ccccc3)c2C1` was tested. Which “% Inhibition @ 10 uM” value did it give?
Its value is -1.61%.

How did the “% Inhibition @ 10 uM” value turn out when `O=C(NCCCN1CCOCC1)c1ccc(CS(=O)(=O)c2ccc(Br)cc2)o1` was run?
The value was -1.28%.

How did the “% Inhibition @ 10 uM” value turn out when `COc1ccc(C2CC(=O)c3cnc(NCCc4ccccc4)nc3C2)cc1` (stereo not shown) was run?
The value was -2.98%.

How did the “% Inhibition @ 10 uM” value turn out when `CC(=O)c1cccc(-n2c(CCC(=O)O)ccc2-c2cccs2)c1` was run?
The value was -3.13%.

How did the “% Inhibition @ 10 uM” value turn out when `Cc1ccc(CS(=O)(=O)CCC(=O)NCc2ccc3c(c2)OCO3)cc1` was run?
Its value is -6.75%.

How did the “% Inhibition @ 10 uM” value turn out when `CC(C)(C)c1ccc(C2=N/C(=C\c3coc4ccccc4c3=O)C(=O)O2)cc1` was run?
The value was -0.972%.

For `CN(C)Cc1c(O)ccc2oc(Cc3ccccc3)cc12`, which “% Inhibition @ 10 uM” value is on record?
Its value is -1.97%.

How did the “% Inhibition @ 10 uM” value turn out when `Cc1cccc(C)c1N(CC(=O)N1CCN(c2ccc(F)cc2)CC1)S(C)(=O)=O` was run?
Its value is 3.72%.

With `O=C(Nc1ccccc1Oc1ccccc1)C1CCCC1` as the compound, how does the “% Inhibition @ 10 uM” value read?
Its value is -6.57%.

`Cc1ccccc1-c1noc(-c2nnn(-c3ccc(C(C)C)cc3)c2N)n1` was tested. Which “% Inhibition @ 10 uM” value did it give?
The value was -3.88%.

Which “% Inhibition @ 10 uM” value does the source give for `CCn1c(=O)c2sccc2n2c(CCCC(=O)NCc3ccccc3Cl)nnc12` here?
Its value is 3.47%.

`COc1ccc(NC(=O)C(N)=O)c(OC)c1` was tested. Which “% Inhibition @ 10 uM” value did it give?
Its value is 4.54%.

`CCC(C)NC(=O)c1ccc(C(=O)NC(C)CC)nc1` (stereo not shown) was tested. Which “% Inhibition @ 10 uM” value did it give?
The value was 2.48%.

With `CCC(C)NC(=O)C1CCN(C(=O)c2ccc(-n3c(C)cc4ccccc43)s2)CC1` (stereo not shown) as the compound, how does the “% Inhibition @ 10 uM” value read?
The value was -1.19%.

For `CCc1ccc(OCC(=O)Nc2sc(C)c(C)c2C(N)=O)c(Br)c1`, which “% Inhibition @ 10 uM” value is on record?
Its value is -5.14%.

For `COc1cccc(CNC(=O)CCNS(=O)(=O)c2ccc3[nH]c(-c4ccccc4)nc3c2)c1`, which “% Inhibition @ 10 uM” value is on record?
The value was -5.61%.

For `COc1ccc(C2C3=C(O)CC(C)(C)CC3=Nc3ccccc3N2C(C)=O)cc1OC` (stereo not shown), which “% Inhibition @ 10 uM” value is on record?
The value was -2.53%.

`CCCSc1ncc(Cl)c(C(=O)N(Cc2ccc(C(C)C)cc2)C2CCS(=O)(=O)C2)n1` (stereo not shown) was tested. Which “% Inhibition @ 10 uM” value did it give?
Its value is 1.25%.

Which “% Inhibition @ 10 uM” value does the source give for `CCOc1ccc(C(=O)N2CCC(Cc3ccccc3)CC2)cc1OCC` here?
Its value is -0.053%.

With `O=C(NCCc1ccc(Cl)cc1)C1CCC(CNS(=O)(=O)c2ccccc2)CC1` (stereo not shown) as the compound, how does the “% Inhibition @ 10 uM” value read?
The value was 5.47%.

Which “% Inhibition @ 10 uM” value does the source give for `Cc1ccc(Cl)cc1NC(=O)c1cnccn1` here?
Its value is 5.31%.

For `NC(=O)CSc1nc2c(c(=O)n1Cc1ccco1)C1(CCCCC1)Cc1ccccc1-2`, which “% Inhibition @ 10 uM” value is on record?
Its value is 1.96%.

With `CC(NC(=O)C(C)NC(=O)CNC(=O)OCc1ccccc1)C(=O)O` (stereo not drawn) (Cbz-Gly-Ala-Ala-OH; configuration not given here) as the compound, how does the “% Inhibition @ 10 uM” value read?
Its value is 3.25%.

`Cc1ccc2cnn(CC(=O)N3CCN(C)CC3)c2c1` was tested. Which “% Inhibition @ 10 uM” value did it give?
Its value is -1.11%.

How did the “% Inhibition @ 10 uM” value turn out when `CCCCN(C)CCNC(=O)NCc1noc2ccc(C)cc12` was run?
The value was 0.568%.

For `O=C(OCc1ccccc1)/C(=C/c1c[nH]c2ccccc12)[N+](=O)[O-]`, which “% Inhibition @ 10 uM” value is on record?
The value was 4.93%.

Which “% Inhibition @ 10 uM” value does the source give for `N#Cc1c2n(c3c(SCc4ccc(Cl)cc4)ncnc13)CCCCC2` here?
Its value is -4.21%.

For `O=C1N/C(=C\c2ccc(OCc3ccc(F)cc3)cc2)C(=O)N1Cc1ccc(Cl)cc1`, which “% Inhibition @ 10 uM” value is on record?
Its value is -3.06%.

Which “% Inhibition @ 10 uM” value does the source give for `CCN(CC)C(=O)C1CCCN(CC2CC3C=CC2C3)C1` (stereo not shown) here?
The value was 5.03%.

For `CC1CCC(N2CC(=O)N(CCc3ccccc3)C(c3ccc(F)cc3)C2=O)CC1` (stereo not shown), which “% Inhibition @ 10 uM” value is on record?
The value was 1.27%.

`CNC(=O)CN(c1cc(Cl)ccc1OC)S(=O)(=O)c1ccc(OC)c(OC)c1` was tested. Which “% Inhibition @ 10 uM” value did it give?
The value was -1.95%.

With `COc1ccccc1-c1nc(S(=O)(=O)c2ccccc2)c(N2CCOCC2)o1` as the compound, how does the “% Inhibition @ 10 uM” value read?
The value was -8.83%.

How did the “% Inhibition @ 10 uM” value turn out when `CN(Cc1ccccc1)Cc1nc2c(c(=O)n(C)c(=O)n2C)n1CCc1ccccc1` was run?
The value was -7.05%.

Which “% Inhibition @ 10 uM” value does the source give for `CC(=O)N/C(=C\c1ccc(OC(C)=O)cc1)C(=O)Nc1ccccc1C#N` here?
Its value is -0.274%.

With `CCOc1ccccc1NC(=O)c1cc(Cl)ccc1OC` as the compound, how does the “% Inhibition @ 10 uM” value read?
Its value is 0.235%.

How did the “% Inhibition @ 10 uM” value turn out when `Cc1cccc(N(CC(=O)NC(C(C)C)C(C)C)S(C)(=O)=O)c1C` was run?
The value was 4.57%.

`N#C/C(=C\c1ccco1)c1nc(-c2ccc(F)cc2)cs1` was tested. Which “% Inhibition @ 10 uM” value did it give?
Its value is 4.33%.

`CCN(CC)c1nc(Cl)nc(NC(C)(C)C)n1` was tested. Which “% Inhibition @ 10 uM” value did it give?
Its value is 2.6%.

`O=C(CCN1N=C(c2ccccc2)CCC1=O)NCc1ccc(F)cc1` was tested. Which “% Inhibition @ 10 uM” value did it give?
The value was -9.35%.

How did the “% Inhibition @ 10 uM” value turn out when `COc1cc2c(cc1OC)C(C(=O)Nc1cnc3ccccc3c1)C1c3ccccc3CCN1C2=O` (stereo not shown) was run?
The value was 1.9%.

Which “% Inhibition @ 10 uM” value does the source give for `OCCNCc1cc(Br)ccc1OCc1ccc(Cl)cc1` here?
The value was -6.92%.

`Cc1ccccc1-c1nnc2sc(NC(=O)C3CCCCC3)nn12` was tested. Which “% Inhibition @ 10 uM” value did it give?
The value was -0.361%.

Which “% Inhibition @ 10 uM” value does the source give for `COc1cc(CN2CCN(Cc3ccc(C)cc3C)CC2)cc(OC)c1OC` here?
The value was 13.5%.

For `Cn1c(C(=O)N2CCC(C(=O)O)CC2)cc2sccc21`, which “% Inhibition @ 10 uM” value is on record?
Its value is 0.0882%.

For `CCC(C)NCCC(c1ccccc1)c1ccccc1O` (stereo not shown), which “% Inhibition @ 10 uM” value is on record?
Its value is -3.74%.

`COc1cc(OC)cc(C(=O)NCCSc2ccccc2)c1` was tested. Which “% Inhibition @ 10 uM” value did it give?
Its value is -5.03%.

For `COc1ccc(NC(=O)CCC(=O)O)cc1`, which “% Inhibition @ 10 uM” value is on record?
Its value is -1.86%.

`CSc1ccc(Cl)c(C(=O)NCCOc2cccc3cccnc23)c1` was tested. Which “% Inhibition @ 10 uM” value did it give?
Its value is -2.05%.

Which “% Inhibition @ 10 uM” value does the source give for `Fc1ccc(N2N=C(c3cccs3)CC2c2cccs2)cc1` (stereo not shown) here?
Its value is 0.219%.

With `CC1CCc2c(C(=O)NCc3ccccc3Cl)csc2C1` (stereo not shown) as the compound, how does the “% Inhibition @ 10 uM” value read?
Its value is -3.21%.

`Cc1ccc(S(=O)(=O)N(CC(=O)Nc2ccc3c(c2)OCCO3)c2cccc(Cl)c2)cc1` was tested. Which “% Inhibition @ 10 uM” value did it give?
Its value is 1.67%.

Which “% Inhibition @ 10 uM” value does the source give for `CC(=O)Nc1ccc(S(=O)(=O)Nc2cc(Cl)ccc2Cl)cc1` here?
Its value is 3.05%.

Which “% Inhibition @ 10 uM” value does the source give for `O=C(NCc1ccccc1)c1nc2ccccc2s1` here?
The value was 5.17%.

How did the “% Inhibition @ 10 uM” value turn out when `CC(C)SC1=NSC2=NC(=O)/C(=C\c3ccc(Br)o3)C(=N)N21` was run?
Its value is -5.47%.

With `CN1CCCN(Cc2ccsc2)CC1` as the compound, how does the “% Inhibition @ 10 uM” value read?
Its value is -0.294%.

With `CCOC(=O)C1CCCCN1Cc1ccc(Br)cc1` (stereo not shown) as the compound, how does the “% Inhibition @ 10 uM” value read?
Its value is -3.65%.
